# In all, about 33,000 sequences were measured (“E-score (-0.5 to 0.5)”: median about -0.012, highest 2% from about 0.27 on). This is one part of the list.
# Biological target: T1, Vhr1 (UniProt P40522)
# T1 sequence: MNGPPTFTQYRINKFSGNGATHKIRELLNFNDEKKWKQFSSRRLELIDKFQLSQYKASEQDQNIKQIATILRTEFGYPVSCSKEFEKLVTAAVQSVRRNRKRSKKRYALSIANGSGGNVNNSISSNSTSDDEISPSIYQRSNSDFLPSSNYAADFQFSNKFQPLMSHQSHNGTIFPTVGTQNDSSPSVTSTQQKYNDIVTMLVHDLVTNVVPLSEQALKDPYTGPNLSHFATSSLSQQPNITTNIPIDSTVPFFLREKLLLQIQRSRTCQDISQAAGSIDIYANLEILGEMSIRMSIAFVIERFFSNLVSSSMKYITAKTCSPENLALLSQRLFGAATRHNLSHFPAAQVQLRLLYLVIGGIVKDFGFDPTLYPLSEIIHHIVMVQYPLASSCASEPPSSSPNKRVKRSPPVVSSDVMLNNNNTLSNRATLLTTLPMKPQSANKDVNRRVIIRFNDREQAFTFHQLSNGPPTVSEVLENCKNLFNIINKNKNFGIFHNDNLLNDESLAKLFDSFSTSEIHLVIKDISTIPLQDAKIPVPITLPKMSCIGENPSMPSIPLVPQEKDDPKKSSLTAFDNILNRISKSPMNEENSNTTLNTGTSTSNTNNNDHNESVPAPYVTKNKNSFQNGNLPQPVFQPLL
# Test: PBM E-score (8-mer binding enrichment) (E-score (-0.5 to 0.5)); higher = stronger / more preferred TF binding; most listed sequences are background and not binding sites
# Conditions: protein concentration: 200 nM; construct: GST-full length
# Outline: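 The E-score, a modified Wilcoxon-Mann-Whitney statistic, was computed by the Universal PBM Analysis Suite for every ungapped eight-base word pooled with its reverse complement. Scans behind it were normalised with masliner after bound GST-tagged yeast transcription factors were detected with fluorescent anti-GST. The proteins, at about 100-200 nM, had been applied to universal all-10-mer Agilent arrays made double-stranded by primer extension.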
row,Sequence,PBM E-score
1,ATGAATAA,0.0199
2,GACGGACC,0.0359
3,AGGGAACT,-0.127
4,GCTATGGA,-0.033
5,AGCTAACT,-0.114
6,ACAGTATC,-0.14
7,CAAGATTC,0.0678
8,GAATCAGA,0.319
9,AGATAGAC,0.0285
10,ATATATGC,0.152
11,ACGCTTGG,-0.139
12,CTGCTTGA,-0.0612
13,GCGTCGGA,0.0588
14,ATAAAAGA,-0.261
15,GCTCTAAA,-0.343
16,CCTATTCC,-0.199
17,AGATCGGG,-0.0392
18,TCCTGAAA,-0.186
19,AGGTTATC,-0.0965
20,CCGTCCAC,-0.0131
21,AGACTGTA,-0.165
22,ATCACGTC,0.0744
23,AATGAAAA,-0.104
24,AATGGTGG,0.11
25,ACTGTCGG,-0.0612

row,Sequence,PBM E-score
1,CTACGATA,0.155
2,GTGGCGCA,0.0908
3,GGGTGACA,-0.16
4,AGTCGGAA,0.293
5,TCCAGCAA,-0.00891
6,CGGTTTAG,-0.0408
7,AGCAGAAT,-0.0316
8,ACAAAGCC,0.096
9,AGGTTCGA,0.0304
10,AATGATTG,0.199
11,TAAACACA,0.149
12,ATGTCAAC,-0.252
13,AGGATCCG,-0.113
14,ACTGGAGG,0.0908
15,GCTACCAA,-0.143
16,GCCGCGCC,-0.0664
17,AGATAGTG,0.178
18,CCTAGAAG,-0.183
19,CTGAATTC,-0.0862
20,ACTCTGGA,0.141
21,AGGCTTCA,-0.189
22,ATGTTCCA,-0.0195
23,ATAGGGAC,-0.0831
24,GCGTTGCA,-0.0568
25,AAAGCCTG,-0.137

row,Sequence,PBM E-score
1,GCCTCGAA,0.029
2,TAGGCCTA,-0.131
3,ACGGATTA,-0.0457
4,AATGTGAA,0.0216
5,ACTGCGCT,-0.0833
6,TCGTACCA,0.0293
7,CTAAACCA,0.00018
8,ATATCATC,0.152
9,CCACCACG,0.0638
10,GCCAAGCC,-0.0842
11,AACCTCAC,0.122
12,CCAGTCTC,-0.0597
13,TCGCGACA,0.133
14,CCAGGGGA,-0.0142
15,CTTACCGA,-0.0767
16,AAGCATGA,0.156
17,AATGATGA,0.163
18,CTGGGATA,-0.187
19,AGAATTTA,-0.18
20,TCGTTTAA,-0.132
21,TCGCAAAA,-0.0543
22,GGCGATAC,-0.0231
23,TCGCTCAA,-0.0505
24,TAAGAACA,0.192
25,ACACAGTG,0.203

row,Sequence,PBM E-score
1,GTTCTTTA,-0.00789
2,GATCAACC,0.0149
3,GTTCGCTA,-0.08
4,ATTCATGC,0.21
5,ACCCTGAA,0.027
6,AGCAACGA,0.0476
7,GATACGCA,0.0973
8,GGCAAGAA,-0.138
9,GGGGCACA,-0.00095
10,GAGCAGGA,-0.076
11,AGCCACCA,0.242
12,ATATATAG,0.132
13,TCTAATAA,-0.104
14,ACGTATGC,-0.0116
15,ATTGAGGA,-0.0693
16,AAGGGTGG,-0.033
17,ACCTGCTG,0.157
18,AAGGAAGA,-0.203
19,AAACCCGA,0.0237
20,AGGCATGC,-0.114
21,CGCGAGAC,0.153
22,CCCATGTA,-0.0412
23,AGGAGTTC,-0.0753
24,AACTTCAG,-0.159
25,AAGTGTAC,-0.12

row,Sequence,PBM E-score
1,GGTTGAAA,-0.228
2,GTGATTGA,0.329
3,CGCAAACC,0.101
4,CCATATTA,0.143
5,GAGATAGA,-0.262
6,TCCATGGA,0.142
7,GGCCTCTA,-0.3
8,TAGTGTAA,-0.0368
9,TATGCCCA,0.00436
10,AAATGCAC,-0.234
11,ATCAAGTG,0.0742
12,CGGGGGAC,-0.0447
13,CAAAGTAG,-0.0641
14,AATCTCCA,-0.131
15,ACTATAGG,-0.0778
16,ACTTCACC,0.104
17,AGCTTATA,-0.242
18,CCCTGAGC,0.0346
19,CATTGGAA,-0.148
20,ACCATCAG,0.0625
21,CTGGCCTC,-0.0348
22,CCTCTAAG,-0.248
23,GGGCGTAA,-0.0807
24,GACTTCTA,-0.12
25,AGGCAGAC,-0.129

row,Sequence,PBM E-score
1,ACTCGACT,0.185
2,GAGCCCAC,0.0787
3,CCTGAACA,-0.0826
4,ACGGTGGA,-0.00957
5,CCTAAGTC,-0.0413
6,AGTGAAAT,-0.15
7,CGTTCATC,-0.0945
8,ATACGTAC,0.147
9,ATTACAGA,0.0764
10,AAGAAGTG,-0.132
11,CAACGTAA,0.00375
12,ATAATTGC,-0.106
13,CGATAAGA,-0.0316
14,CGTCTGAG,0.024
15,GGTGGCAA,-0.138
16,AGAGTTGG,-0.124
17,CAAGGTAC,-0.221
18,CATGTCTC,0.294
19,CCTACCTC,0.0528
20,GTCGGGAA,0.119
21,CCCCCGTA,-0.123
22,CTACTGAA,0.132
23,TACTTCAA,-0.0326
24,CGGGCAAG,-0.00415
25,CCAAATTC,-0.22

row,Sequence,PBM E-score
1,ATTGTAGG,0.138
2,CCCTGGAG,-0.0798
3,AGGGGACA,-0.0414
4,CTATATTA,0.194
5,ATGACCCA,0.362
6,CCCATAGC,-0.116
7,ACTTTGTC,-0.189
8,CCAGCTCA,-0.0283
9,GGGGCGTA,0.0672
10,CACTACCG,-0.0589
11,CCGGCTGA,0.17
12,TCGACACA,0.159
13,ATAGAGTA,-0.0569
14,GGTGCGAA,0.171
15,ACAAGCCG,-0.0672
16,GAACACGA,-0.01
17,GGTTCAAC,-0.00014
18,AAGATAGT,0.169
19,ATTGACCG,0.168
20,CCCAGATA,0.106
21,ATCTTATA,0.147
22,ACCATTCA,0.105
23,ACAGCCGC,0.0674
24,CAACGCGG,0.092
25,GAAGGCCA,-0.158

row,Sequence,PBM E-score
1,AATAACAA,-0.231
2,CACTACTG,0.0812
3,AAGAAAAG,-0.115
4,TCGTACAA,0.109
5,CCAAGCCA,-0.0301
6,AATCCGCA,0.191
7,AAGGTATC,-0.0689
8,CTGGCGTA,-0.00936
9,CTATGGTC,0.121
10,AATGTGCT,-0.0855
11,TCCGGTCA,-0.0985
12,ACGCTTTC,-0.137
13,CTGGCATC,-0.15
14,AGGGCCTA,-0.277
15,GAAACTAA,-0.163
16,GCTATGAA,0.0335
17,AACACAAT,-0.0343
18,ATTGTACG,-0.114
19,GTCCAGTA,-0.151
20,ATCGGGTG,0.217
21,CTGCCCCA,0.0236
22,ATACACGC,-0.0158
23,TCCACTAA,0.0296
24,ACTCCTAA,0.183
25,ACTGCGTA,-0.0109

row,Sequence,PBM E-score
1,ATAACATA,0.23
2,CGCCCGAG,0.21
3,CTGGGTAA,0.103
4,AAGGGCCA,-0.149
5,CGCGCAAA,0.0721
6,TGGCTACA,0.196
7,CAAACAAA,-0.0999
8,AAGGGAGA,-0.147
9,CACCTTGC,0.0863
10,GCTGCATA,0.0549
11,GATCATGA,0.197
12,CTCATCAC,0.0121
13,AGCTTTCA,-0.0375
14,ACCCCGAT,0.182
15,AATGGCCA,-0.0559
16,AGCGTCGA,0.109
17,CAAACAGC,0.173
18,GGTTGGAC,-0.175
19,CGACGGTC,0.127

# — the supplement of paper PMC3334620
